Reference: PubChem BioAssay AID1030 (National Center for Advancing Translational Sciences (NCATS), 2008)
The campaign covered roughly 220,000 compounds. About 16,000 (7.3%) were called active. This list was built around the results that the source calls inconclusive (neither active nor inactive); the mix of calls is not that of the screen. Calls come from the whole dose curve; as a rule, active = well fitted inhibition curve with a large enough effect (not every such curve was filed as active); inconclusive = small, poorly fitted or top-dose-only effect, or another doubt; inactive = no such curve, though single readings can be large or run the other way. Potencies of inconclusive entries are left out as doubtful fits.

Biological target: Aldehyde dehydrogenase 1A1 (Homo sapiens) (UniProt P00352)
Chain of UniProt P00352 (P00352 whole entry, looked up): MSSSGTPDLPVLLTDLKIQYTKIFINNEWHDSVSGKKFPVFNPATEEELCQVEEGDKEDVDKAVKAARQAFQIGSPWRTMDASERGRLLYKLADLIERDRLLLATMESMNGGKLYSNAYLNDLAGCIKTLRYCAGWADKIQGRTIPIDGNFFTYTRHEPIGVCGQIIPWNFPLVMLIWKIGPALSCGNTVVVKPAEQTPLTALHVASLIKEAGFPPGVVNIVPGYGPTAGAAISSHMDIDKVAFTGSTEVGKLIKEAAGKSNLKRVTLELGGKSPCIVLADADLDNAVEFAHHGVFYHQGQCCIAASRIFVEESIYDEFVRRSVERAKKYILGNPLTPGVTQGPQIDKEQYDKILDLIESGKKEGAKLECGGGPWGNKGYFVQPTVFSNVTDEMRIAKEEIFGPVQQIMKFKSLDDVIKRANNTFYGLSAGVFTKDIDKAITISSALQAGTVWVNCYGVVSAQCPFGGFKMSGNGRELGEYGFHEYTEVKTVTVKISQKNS
Assay: qHTS Assay for Inhibitors of Aldehyde Dehydrogenase 1 (ALDH1A1);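 for activity, negative = inhibition: plate controls were no enzyme wells and a reference inhibitor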
Details: Purified ALDH1A1, NADH fluorescence, propionaldehyde substrate; series mostly up to 75.3 µM
Potency is the fitted concentration of half-maximal effect; tags give direction and shape of the fitted curve.

| Structure (SMILES) | Potency | activity, negative = inhibition |
| --- | --- | --- |
| CCOC(=O)c1cn[nH]c1N | inconclusive [inhibitor, single point] |  |
| Cc1ccc(S(=O)(=O)N2CCC(=O)N(CCOCc3cccc(F)c3)CC2)cc1 | inconclusive [inhibitor, partial curve] |  |
| Cc1nc2ccccc2c2oc(C(=O)NCCCN3CCCC3=O)cc12 | inconclusive [inhibitor, single point] |  |
| CCN1CCN(CC(=O)N2c3ccccc3CC2C)CC1 (centres undefined) | inconclusive [inhibitor, single point] |  |
| Cc1cc(C(=O)OCC(=O)Nc2cccnc2Cl)c2ccccc2n1 | inactive |  |
| N#C/C(=C/c1ccc(O)c([N+](=O)[O-])c1)C(=O)Nc1ccccc1 | inconclusive [inhibitor, single point] |  |
| CCOc1cc(/C=N/n2cnnc2)ccc1OCC(=O)Nc1ccccc1OC | inconclusive [inhibitor, single point] |  |
| CCCC/C=C/C(NC(=O)c1ccc(C(F)(F)F)cc1)c1ccccc1 (centres undefined) | inactive |  |
| CCOCCCNCc1cn(-c2ccc(F)cc2F)nc1-c1ccccc1C | inactive |  |
| CC(=O)NCCc1cc2ccc(C)cc2[nH]c1=O | inactive |  |
| COc1cc(CSc2nnnn2-c2ccc(C)cc2)cc(OC)c1OC | inconclusive [inhibitor, partial curve] |  |
| CCSCc1nc2ccccn2c1Br | inconclusive [inhibitor, single point] |  |
| Cc1cccc(CNc2nc(-c3cccnc3)nc3ccccc23)c1 | inconclusive [inhibitor, partial curve] |  |
| O=c1c(O)c(-c2ccccc2)oc2cc(O)cc(O)c12 | inactive |  |
| Cc1cccc(NC(=O)NC(=S)NC(=O)c2ccccc2)c1 | inconclusive [inhibitor, single point] |  |
| CCOC(=O)c1ccc(N=Cc2nc(-c3ccccc3)oc2OC(C)=O)cc1 | active: 22.4 µM |  |
| CCCc1nc(NCc2ccc3c(c2)OCO3)c2nnn(Cc3ccccc3Cl)c2n1 | inactive |  |
| CCOC(=O)c1c(-c2cccs2)csc1NC(=O)CSc1ncn[nH]1 | active: 20 µM |  |
| NC(=S)Cc1nc(-c2ccccc2)cs1 | active: 3.16 µM |  |
| COc1cc2cc(CN(CCc3ccccc3C)C(=S)NCCCN(C)C)c(=O)[nH]c2cc1OC | inconclusive [inhibitor, partial curve] |  |
| O=S(=O)(c1ccc(Cl)cc1Cl)n1ccc2cccnc21 | inactive |  |
| O=C(O)c1ccccc1-c1ccccc1C(=O)NCc1cccnc1 | inactive |  |
| CCN(CC)C(=O)COc1ccc(-c2nnc(Nc3ccc(OC)c(C(=O)NC)c3)c3ccccc23)cc1 | active: 25.1 µM |  |
| CCOc1ccc(/C=C(/NC(=O)c2ccccc2)C(=O)NCCC(=O)O)cc1 | inactive |  |
| COc1cccc(CN2CCN(Cc3ccc(OC)c(OC)c3)CC2CCO)c1 (centres undefined) | inconclusive [inhibitor, single point] |  |

| Structure (SMILES) | Potency | activity, negative = inhibition |
| --- | --- | --- |
| CCCCC(=O)Nc1nc(C)c(-c2csc(Nc3ccccc3OC)n2)s1 | inconclusive [inhibitor, single point] |  |
| Cc1ccccc1-n1c(C)cc(/C=C(\C#N)C(=O)NCC2CCCO2)c1C (centres undefined) | active: 14.1 µM |  |
| c1ccc(CNc2ncnc3ccc(-c4ccc5c(c4)OCO5)cc23)cc1 | inconclusive [inhibitor, partial curve] |  |
| O=C(CN1CCOCC1)NN=C1CCCCCCCCCCC1 | inactive |  |
| O=C(NC1CCCCC1)C(=S)NCCc1ccccc1 | active: 17.8 µM |  |
| COc1ccc(/C=C2\SC(=S)N(NC(=O)c3csc4c3CCCC4)C2=O)cc1 | inactive |  |
| Cc1cc(NCCCN2CCOCC2)n2ncc(-c3ccccc3)c2n1 | inconclusive [inhibitor, single point] |  |
| CCc1ccc(NC2Nc3cc(C)nn3S2)cc1 (centres undefined) | active: 10 µM |  |
| CC(C)(CO)NC(=S)NCc1ccco1 | inconclusive [inhibitor, single point] |  |
| Cc1ccc(C(=O)NCCOC23CC4CC(CC(C4)C2)C3)cc1 | inconclusive [inhibitor, single point] |  |
| CCOC(=O)c1cc2c(=O)n3ccccc3nc2n(Cc2ccccc2Cl)c1=N | inconclusive [inhibitor, partial curve] |  |
| O=C(CSc1ccccn1)Nc1ccc2c(c1)C(=O)c1ccccc1C2=O | active: 25.1 µM |  |
| C=CCn1c(Cc2c[nH]c3ccccc23)n[nH]c1=S | active: 8.91 µM |  |
| Fc1ccc(Nc2c(-c3ccco3)nc3ccccn23)cc1 | inconclusive [inhibitor, partial curve] |  |
| CCN1CCN(C(=O)Nc2cccc3ccccc23)CC1 | inconclusive [inhibitor, single point] |  |
| CCOC(=O)C1CCCN(S(=O)(=O)c2ccc(Br)c(OC)c2)C1 (centres undefined) | active: 11.2 µM |  |
| CCOC(=O)C1NN=C(C(=O)c2ccc(C)cc2)C1c1ccc(C)cc1 (centres undefined) | inconclusive [inhibitor, partial curve] |  |
| O=S(Cc1ccc(Cl)cc1)c1ncc(CO)n1Cc1ccccc1 (centres undefined) | inactive |  |
| COc1cccc(NC(=S)/C(=C(\[O-])c2ccc([N+](=O)[O-])cc2)[n+]2ccccc2)c1 | active: 12.6 µM |  |
| COC(=O)CCCC1=CC2=CC(=O)C(C)(OC(=O)c3cccs3)C(=O)C2=CN1Cc1ccc2c(c1)OCO2 (centres undefined) |  | inactive: -16.8% [at 13.5 µM] |
| Cn1c(N)c(C(=O)COC(=O)C2CCCC2)c(=O)n(C)c1=O | inconclusive [inhibitor, single point] |  |
| CCN(CC)S(=O)(=O)c1cc(C(=O)N2CCc3ccccc32)ccc1Cl | inconclusive [inhibitor, single point] |  |
| CCC(C)c1ccc(NC(=S)NCc2ccccn2)cc1 (centres undefined) | inconclusive [inhibitor, single point] |  |
| Cc1sc2ncnc(N=Nc3c(O)[nH]c4ccccc34)c2c1C | inconclusive [inhibitor, full curve, poor fit] |  |
| NC(=O)c1ccc(NC(=O)COC(=O)C2CC(=O)N(Cc3ccccc3)C2)cc1 (centres undefined) | inconclusive [inhibitor, single point] |  |

| Structure (SMILES) | Potency | activity, negative = inhibition |
| --- | --- | --- |
| CCOc1ccccc1NC(=O)c1cccc(NC(=O)CC(c2ccccc2)c2ccccc2)c1 | inconclusive [inhibitor, partial curve, poor fit] |  |
| CCN(CC)c1ccc(C=Nc2cc(C)ccc2C)c(O)c1 | inconclusive [inhibitor, single point] |  |
| CN(C)CCNC(=O)c1cc2c(s1)-c1ccccc1OC2 | inconclusive [inhibitor, partial curve] |  |
| O=C(Cc1ccccc1)NCC(=O)OCC(=O)c1cccc([N+](=O)[O-])c1 | inactive |  |
| Nc1no[n+]([O-])c1-c1ccccc1 | inactive |  |
| O=C(CSc1ccc2nnc(-c3cccc(F)c3)n2n1)NCC1CCCO1 (centres undefined) | inconclusive [inhibitor, partial curve] |  |
| COC(=O)C1NN=C(C(=O)c2ccc(Cl)cc2)C1c1ccc(OC)cc1 (centres undefined) | active: 25.1 µM |  |
| CCOC(=O)c1cc(CN2CCOCC2)oc1-c1ccccc1 | inconclusive [inhibitor, partial curve] |  |
| Cc1ccc(NC(=O)CN(C)C(=O)CSc2nc(C)cs2)cc1 | inactive |  |
| O=C(c1nn2c(C(F)(F)F)cc(-c3cccs3)nc2c1Cl)N1CCCc2ccccc21 | inconclusive [inhibitor, single point] |  |
| CCN(CC)CCNS(=O)(=O)c1ccc2[nH]cc(C(=O)O)c(=O)c2c1 | inactive |  |
| O=C(c1cccc2ccccc12)N1CCN(c2ccc([N+](=O)[O-])c(N3CCOCC3)c2)CC1 | active: 10 µM |  |
| C=CCSc1nnc(NC(=O)c2cccc(S(=O)(=O)N3CCOCC3)c2)s1 | inconclusive [inhibitor, partial curve] |  |
| CC(=O)c1c(COC(=O)c2ccncc2)nc2ccccc2[n+]1[O-] | inconclusive [inhibitor, single point] |  |
| O=C1c2cccc3cccc(c23)C(=O)N1CCc1ccccc1 | inconclusive [inhibitor, single point] |  |
| Oc1cc(NCc2cccnc2)ccc1-c1nc2ccccc2o1 | inconclusive [inhibitor, single point] |  |
| COCCCNC(=O)Cn1nnc(-c2ccc(NC(=O)c3ccc(F)cc3)cc2)n1 | inconclusive [inhibitor, full curve] |  |
| COc1ccc(O)c(C(=O)c2cnn(C(=O)c3cc(C)oc3C)c2)c1 | active: 3.55 µM |  |
| O=C(Nc1cccc(NC(=O)c2ccc(-c3ccc(Br)cc3)o2)c1)c1ccccc1 | inconclusive [inhibitor, single point] |  |
| COc1ccc2cc(C(=O)C3CCCN(C(=O)CSc4nnc(C)o4)C3)ccc2c1 (centres undefined) | inconclusive [inhibitor, partial curve] |  |
| NC(=O)C1(N2CCCCC2)CCN(C(=S)Nc2ccc(S(N)(=O)=O)cc2)CC1 | inconclusive [inhibitor, single point] |  |
| C=CCNC(=O)/C(=C\c1cccc([N+](=O)[O-])c1)NC(=O)c1ccccc1 | inactive |  |
| Cc1nn(CC2CC2)c(=O)n1-c1ccccc1 | inconclusive [inhibitor, partial curve, poor fit] |  |
| Cc1ccc(N=C2C(=S)N(c3ccc(C)cc3)C(=N)N2/N=C/c2ccc(Cl)cc2)cc1 | inconclusive [inhibitor, full curve] |  |
